The values below come from PubChem BioAssay AID488969 (Vanderbilt High Throughput Screening Facility, 2010).

In all, about 110,000 compounds were measured (“z-score”: median about -0.1, highest 2% from about 2 on). The list shows a part of the results.

The target of this experiment is Metabotropic glutamate receptor 8 (Rattus norvegicus) (UniProt P70579). The experiment can be described thus: rat mGluR8 modulators via GIRK flux, primary screen, cell-based, thallium flux, HTS (AID 488969). The settings on record: HEK293 rat mGluR8, GIRK (G protein-gated inwardly rectifying potassium channel) thallium flux, FluoZin2; at 10 µM; stronger effect = higher value; submaximal glutamate (EC20) added with thallium.
Sequence of UniProt P70579 (P70579 whole entry, looked up): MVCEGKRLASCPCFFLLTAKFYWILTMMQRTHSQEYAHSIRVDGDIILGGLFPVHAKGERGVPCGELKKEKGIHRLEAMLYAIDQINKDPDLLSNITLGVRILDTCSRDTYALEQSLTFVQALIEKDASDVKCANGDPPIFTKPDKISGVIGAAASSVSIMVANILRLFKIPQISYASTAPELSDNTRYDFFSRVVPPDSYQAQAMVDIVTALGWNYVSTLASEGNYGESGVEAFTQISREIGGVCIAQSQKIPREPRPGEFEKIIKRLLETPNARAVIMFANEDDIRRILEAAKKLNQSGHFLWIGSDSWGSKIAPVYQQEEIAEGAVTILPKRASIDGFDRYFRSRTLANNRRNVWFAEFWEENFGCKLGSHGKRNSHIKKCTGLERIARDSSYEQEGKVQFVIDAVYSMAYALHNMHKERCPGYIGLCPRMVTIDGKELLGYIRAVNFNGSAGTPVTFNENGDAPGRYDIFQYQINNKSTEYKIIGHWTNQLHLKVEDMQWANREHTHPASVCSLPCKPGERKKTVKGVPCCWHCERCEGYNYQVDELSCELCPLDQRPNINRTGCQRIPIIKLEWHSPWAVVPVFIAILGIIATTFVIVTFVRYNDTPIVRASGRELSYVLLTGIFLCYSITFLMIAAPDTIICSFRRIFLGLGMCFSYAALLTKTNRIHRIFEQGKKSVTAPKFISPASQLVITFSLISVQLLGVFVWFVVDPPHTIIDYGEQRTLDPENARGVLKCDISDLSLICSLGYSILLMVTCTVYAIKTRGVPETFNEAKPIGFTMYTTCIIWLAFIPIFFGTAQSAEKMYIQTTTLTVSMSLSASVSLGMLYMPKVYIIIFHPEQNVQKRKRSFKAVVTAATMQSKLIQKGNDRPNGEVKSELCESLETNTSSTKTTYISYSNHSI
In turn, `COC(=O)c1ccc(NC(=O)CSc2nc3cccnc3n2C)cc1` returned a z-score of -0.0928.

Consider `N#Cc1c(NCCCO)nc(-c2ccco2)c2c1CCCC2`, for which the z-score amounted to 0.394.

The compound `CCCCCC(=O)N1CC2(C)CN(C(=O)CCCCC)CC(C)(C1)C2=O` showed a z-score of 0.292.

In turn, `COc1ccc(C2C(C(=O)c3sc(C)nc3C)=C(O)C(=O)N2CCN(C)C)cc1` (stereo not drawn) had a z-score of 0.139.

`COC(=O)CSc1ccc(-c2nc3ccc(C)cc3[nH]2)cn1` gave a z-score of 0.0297.

The compound `CC1CN(C(=O)c2cccc(C(=O)N3CC(C)OC(C)C3)c2)CC(C)O1` (stereo not drawn) returned a z-score of -0.281.

In turn, `COC(=O)/C=C1\SC(=NC(=O)c2cccc(Cl)c2)NC1=O` displayed a z-score of -0.119.

Compound `O=C(Cn1c(C(F)(F)F)nc2ccccc21)c1ccc(Cl)cc1` gave a z-score of -0.0833.

In turn, `FC(F)(F)c1nnc2ccc(N3CCCC3)nn12` registered a z-score of -0.343.

In the case of `Clc1ccc2ncc(-c3nnnn3-c3ccccc3)c(-c3ccccc3)c2c1`, the z-score is -0.259.

For the compound `CN(C)C(CNC(=O)c1ccc(S(=O)(=O)NCc2ccco2)cc1)c1ccccc1` (stereo not drawn), the z-score is 0.343.

In turn, `Cc1ccc(N2CCN(C(=O)c3ccccc3F)CC2)c(C)c1` returned a z-score of -0.309.

The compound `O=C(Nc1ccccc1)c1nnsc1S(=O)c1ccc(Cl)cc1` (stereo not drawn) gave a z-score of -0.317.

`CCOc1ccc2ncc(S(=O)(=O)c3ccccc3)c(N3CCC4(CC3)OCCO4)c2c1`: the z-score is -0.472.

`C/C(=N\NC(=O)c1c[nH]c2ccccc12)c1ccc(C)o1` yielded a z-score of -0.582.

In the case of `O=[N+]([O-])c1cc(S(=O)(=O)N2CCCCC2)ccc1NCc1cccc(Cl)c1`, the z-score was 0.119.

`COc1ccccc1CNC(=O)N[C@@H](Cc1ccccc1)C(=O)O` had a z-score of -0.154.

Compound `N#CC1=C(N)N=C(SCc2ccccc2)C(C(N)=O)C12CCCCC2` (stereo not drawn) yielded a z-score of -0.119.

`N#Cc1c2n(c3c(=O)n(Cc4ccc(Cl)cc4)cnc13)CCCCC2`: the z-score was -0.369.

`CCCCn1c(CCNC(=O)CC)nc2ccccc21` had a z-score of -0.38.

With `O=C(OCc1ccccc1)c1cn(-c2ccccc2)nc1-c1ccncc1`, the z-score was -0.0669.

Take `Cc1cc(C(C)(C)C)oc1C(=O)N(CC(=O)NC1CCCC1)Cc1ccc(F)cc1`: the z-score stood at 0.0113.

As to `O=C(COC(=O)c1ccccc1Br)NCc1ccccc1`, the z-score was -0.203.

With `COc1cccc2cc(C(=O)C3=C(O)C(=O)N(CCCN4CCOCC4)C3c3ccncc3)oc12` (stereo not drawn), the z-score was -0.186.

Compound `Cc1ccc(-c2ccc(SCC(=O)N3CCCc4ccccc43)nn2)cc1` displayed a z-score of -0.114.

Compound `Cc1[nH]nc(N2CCCCC2)c1[N+](=O)[O-]` registered a z-score of 0.239.

On to `Cc1ccccc1NC(=O)c1cccc2nc3ccccc3nc12`, for which the z-score is -0.119.

`CC(=O)c1cccc(S(=O)(=O)NCC(c2ccco2)N2CCCCC2)c1` (stereo not drawn) returned a z-score of -0.264.

Compound `C/C(=N/NS(=O)(=O)c1ccc(Cl)cc1)c1cccc(NC(=O)c2ccc(Cl)cc2Cl)c1` displayed a z-score of -0.356.

For `C=Cc1cccc(NC(=O)COc2ccccc2)c1`, the z-score came to 0.261.

The compound `COc1cc(/C=N/NC(=O)c2cccnc2)ccc1OC(=O)c1ccc2c(c1)OCO2` registered a z-score of -0.0927.

`Cc1cccc(NC(=O)Cn2c(=O)n(Cc3ccccc3)c(=O)c3c(C)c(C)sc32)c1`: the z-score was -0.345.

Compound `CC(C)(C)c1nc2sc3c(c2c(=O)o1)CCCC3` yielded a z-score of 0.125.

In the case of `CCOc1ccccc1NC1=C(Cl)C(=O)N(c2ccccc2)C1=O`, the z-score is -0.39.

With `COc1ccc(O)c(/C=N/NC(=O)c2ccc(OCc3cccc(Br)c3)cc2)c1`, the z-score is -0.103.

As for `CC1CCCC(C)N1CCNC(=O)CCn1nc(-c2ccccc2)ccc1=O` (stereo not drawn), the z-score is -0.341.

In the case of `Oc1ccc(N=Cc2cc(Br)c(N3CCOCC3)o2)cc1`, the z-score is -0.196.

Consider `Cc1ccc(-c2nc(-c3ccccc3)no2)c(Cl)c1`, for which the z-score stood at 0.282.

On to `COc1ccc(C(=O)NCC(=O)n2nc(C)cc2C)cc1OC`, for which the z-score was -0.382.

As for `Cc1ccc(-n2ncc3c(=O)[nH]c(SC(C)C)nc32)cc1`, the z-score is -0.689.

`CCN(CC)S(=O)(=O)c1ccc2c(c1)nc(CCC(=O)OCC(=O)N1CCc3ccccc31)n2C` came in with a z-score of -1.27.

`COc1ccc(C(C(=O)NC2CCCCC2)N(C(=O)c2sc(C)nc2C)c2ccc(OC)cc2)cc1` (stereo not drawn) showed a z-score of -0.78.

Regarding `O=C(NCSc1ccnc(SCNC(=O)c2ccc(F)cc2)n1)c1ccc(F)cc1`, the z-score is -0.116.

Consider `CN(C)C(CNc1nnnn1-c1ccccc1)c1ccco1` (stereo not drawn), for which the z-score is -2.3.

`Cc1cc(C)nc(NC(=O)CCCC(=O)O)c1` gave a z-score of 0.294.

In the case of `O=C(Nc1ccc(S(=O)(=O)Nc2cnc3ccccc3n2)cc1)c1ccc(Br)o1`, the z-score was -0.111.

On to `O=S(=O)(NC1c2cccc3cccc(c23)C1Sc1ncccn1)c1ccc(Cl)cc1` (stereo not drawn), for which the z-score was -0.0393.

Regarding `O=C(/C=C/c1ccco1)NC(=S)Nc1cccc([N+](=O)[O-])c1`, the z-score was found to be 0.192.

Consider `COc1ccccc1C(=O)N(Cc1nc(-c2ccc(Cl)cc2)no1)C(C)C`, for which the z-score was found to be 0.313.

On to `Cc1ccc(NC(=O)c2c(Cl)n(C)c3ccccc23)cc1`, for which the z-score is -0.377.

`CC(CCc1ccco1)NC(=O)Cn1ncc2c1-c1ccccc1OC2` (stereo not drawn) gave a z-score of -0.321.

With `COc1cccc(C(=O)CSc2nnnn2C2CCCCC2)c1`, the z-score was -0.109.

Compound `OCCN(Cc1ccccc1)Cc1cccc(F)c1` yielded a z-score of -0.464.

In the case of `Cc1ccc(Cn2c(CN3CCOCC3)nc3c2c(=O)n(C)c(=O)n3C)cc1`, the z-score is 0.276.

`O=C(Cn1c(=O)oc2ccccc21)NC(=O)NCc1ccccc1`: the z-score is -0.0542.

Turning to `CC(C)(C)c1ccc(COn2c(=O)c(-c3ccco3)[n+]([O-])c3ccccc32)cc1`, the z-score was -0.289.

In turn, `O=C(COC(=O)c1cncc(Br)c1)NC1CC1` came in with a z-score of -0.0374.

Turning to `O=C1CCCc2ccccc2N1Cc1cccc(Cl)c1`, the z-score is -0.324.

Compound `CCn1c(=O)cc(SCC(=O)N2CCOCC2)c2ccccc21` yielded a z-score of -0.0136.

Compound `CN1CCN(C(=O)c2ccccc2NC(=O)C(C)(C)C)CC1` registered a z-score of -0.356.

Turning to `COc1ccc(-c2cc(C(F)(F)F)n3ncc(C(=O)NCc4ccco4)c3n2)cc1`, the z-score is -0.0428.

`Cc1nn(CC(=O)N(C)C)c(=O)c2ccccc12` gave a z-score of -0.39.

For the compound `Cn1c(NCC(O)c2ccccc2)nc2c1c(=O)n(Cc1ccc(Cl)c(Cl)c1)c(=O)n2C` (stereo not drawn), the z-score was -0.203.

The compound `COC(=O)Cc1c(C)nc2nc(-c3ccccc3)[nH]n2c1=O` returned a z-score of -0.455.

In turn, `Nc1nc(C(=O)N2CCOCC2)nn1S(=O)(=O)c1ccc(Cl)cc1` gave a z-score of 0.299.

`O=C(OC1CCOC1=O)c1ccc(-c2nc3ccccc3s2)s1` (stereo not drawn) had a z-score of -0.0104.

For `Cc1nn(C)cc1CNC(=O)c1ccc(Br)o1`, the z-score was determined as 0.842.

`CCC(=O)NC1(C(F)(F)F)C(=O)NC(C)=C1C#N` (stereo not drawn) had a z-score of -0.261.

As to `COCCCn1c(-c2ccco2)nc2ccccc2c1=O`, the z-score worked out at 1.93.

Compound `CCc1ccc(C(=O)COC(=O)c2cccs2)cc1` yielded a z-score of 0.161.

In turn, `COC(=O)c1ccc(NC(=O)CSCC(=O)OCC(=O)c2ccc(Br)cc2)cc1` had a z-score of 0.0299.

For the compound `CN(Cc1ccccc1)c1nc2c(c(=O)[nH]c(=O)n2C)n1CCSc1nc2ccccc2[nH]1`, the z-score was 0.103.

In turn, `CCOC(=O)CSc1ccc(-c2nc3ccccc3[nH]2)cn1` registered a z-score of -0.14.

`CC(C)(C)c1ccc(C(=O)NCc2cccnc2)cc1` came in with a z-score of 0.116.

In turn, `Cc1ccc2cccc(NC(=S)NC(=O)c3ccnn3C)c2n1` had a z-score of 2.25.

For `COc1ccc(C2C(C#N)=C(/N=C/N3CCN(C)CC3)OC3=C2C(=O)CC(C)(C)C3)cc1` (stereo not drawn), the z-score was 0.796.

In the case of `Cc1ccc(S(=O)(=O)Oc2ccc(/C=N/NC(=O)c3c(Cl)cnn3C)cc2)cc1`, the z-score stood at 1.89.

With `COC(=O)c1cn(CC(=O)N2CCCCC2C)c2ccccc12` (stereo not drawn), the z-score was -0.213.

As to `O=C(OCC#CCSc1nnc(-c2ccncc2)o1)c1cccs1`, the z-score was -0.0957.

In the case of `O=C(CSc1nnnn1-c1cccc2c1CCCC2)N1CCOCC1`, the z-score stood at 0.398.

`CCOc1ccc(NC(=O)CSc2nnc(Cn3cnc([N+](=O)[O-])n3)n2C)cc1` showed a z-score of -0.0324.

Regarding `c1nc(N2CCOCC2)c2[nH]cnc2n1`, the z-score is 0.445.

Consider `c1ccc(CCNc2nc3ccccc3s2)cc1`, for which the z-score is -0.152.

As for `O=C1OCCC1Sc1nnc(-c2ccc(Br)cc2)o1` (stereo not drawn), the z-score is -2.15.

Take `Cc1ccc(NC(=S)NCC2CCCO2)cc1C` (stereo not drawn): the z-score amounted to 0.128.

Compound `Cc1ccc(S(=O)(=O)N2CCCCC2)cc1NS(=O)(=O)c1cccc(C(=O)O)c1` returned a z-score of -0.116.

On to `CN(C(=O)C1CCOC1)c1nnc(-c2cnccn2)s1` (stereo not drawn), for which the z-score was -0.856.

As for `CNC(=O)CSc1nnc(COc2ccc(Cl)cc2)n1CCOC`, the z-score is 1.63.

The compound `C=CCn1c(SCC(=O)c2ccc(CNC(C)=O)o2)nc2ccccc2c1=O` came in with a z-score of 0.598.

`O=CNC(=O)c1ccccc1C(=O)O` returned a z-score of 0.026.

`COc1ccccc1N1CCN(C(c2cccs2)c2nnnn2C2CCCC2)CC1` (stereo not drawn): the z-score is -0.535.

In the case of `CCCCOc1c(Br)cc(/C=C2\N=C(C)OC2=O)cc1OCC`, the z-score worked out at 0.376.

In turn, `COC(=O)CN(c1cccc(F)c1)S(C)(=O)=O` came in with a z-score of 0.265.

In turn, `Cn1c(NCc2ccco2)nc2c1c(=O)n(Cc1ccc(Cl)cc1)c(=O)n2C` displayed a z-score of -0.607.

`O=C(Nc1n[nH]c(C2CCCCC2)n1)C1CCCCC1` came in with a z-score of -0.0165.

For the compound `CC(=O)N1c2ccc3ccccc3c2C2C=CCC2C1c1ccc(Br)cc1` (stereo not drawn), the z-score is -0.0981.

With `COC(=O)c1ccc(Nc2nc(C)cc(C)n2)cc1`, the z-score is -0.976.

In turn, `O=C(CCS(=O)(=O)c1cccc2nsnc12)NC1CCCCC1` registered a z-score of -0.258.

The compound `Cc1ccc(OCC(O)Cn2c(NCCc3ccccc3)nc3c2c(=O)[nH]c(=O)n3C)cc1` (stereo not drawn) came in with a z-score of 1.2.

Take `COc1cc(OC)c(NC(=O)CCc2nc(-c3cccs3)no2)cc1Cl`: the z-score is -0.447.

On to `Cc1ccccc1NC(C)C(=O)N/N=C/c1ccccc1OCc1cccc(Br)c1` (stereo not drawn), for which the z-score was -0.61.

On to `Cc1ccc(CCN2CC(C(=O)NCc3ccco3)CC2=O)cc1` (stereo not drawn), for which the z-score is 0.656.

For the compound `COc1ccc(-n2c(SCC(=O)Nc3ccccc3)nc3c(c2=O)SCC3)cc1`, the z-score was -0.458.

For `COc1cccc2cc(C(=O)CC3(O)C(=O)N(Cc4ccccc4)c4ccccc43)c(=O)oc12` (stereo not drawn), the z-score was -0.219.

On to `Cc1ccc(C(=O)N/N=C(\CC(C)C)c2ccccc2)cc1`, for which the z-score was determined as 0.26.

Compound `O=C(Nc1cnn(Cc2ccc(F)cc2)c1)C(c1ccccc1)c1ccccc1` had a z-score of 0.0792.

As for `CCCCN(CCCC)Cc1cc2ccccc2c2c1COC2`, the z-score is 0.829.

`CCc1ccc(OCC(O)CNC(C)(C)C)cc1` (stereo not drawn) yielded a z-score of 0.829.

As to `CCN(CC)C(=O)CSc1nc(O)cc(=O)n1CC`, the z-score is -0.943.

On to `CCC(=O)NCCNc1nc2cc(C)c(C)cc2cc1C#N`, for which the z-score is -0.187.

As to `CCCC1C2C(=O)N(c3ccccc3)C(=O)C2ON1c1ccccc1` (stereo not drawn), the z-score is -0.305.

As to `O=C1CCCc2oc3ccc(O)cc3c21`, the z-score was -0.105.

As to `Cc1cc(C)nc(NC2=NCC(=O)N2c2ccccc2Br)n1`, the z-score came out at 0.578.
